The text below walks through data of publication PMC9314279.

Test [1] deals with retinal Na/K-ATPase (ATP1A3/ATP1B2), heterologously expressed on Hek293 cells (human) (UniProt P13637+P14415). The test can be described thus: retinoschisin binding to transfected Hek293 cells, western blot of cell pellets; supernatant of Hek293 cells stably secreting recombinant retinoschisin incubated for 1 h with transfected Hek293 cells; cell pellets blotted after intensive washing; cells with empty vector as negative control. (Immunoblotting shows a protein as a band on a membrane.)

The target of test [2] is T1, Kv2.1 plus Kv8.2, heterologously co-expressed in Hek293 cells (human) (UniProt Q14721+Q8TDN2).
T1 sequence 1: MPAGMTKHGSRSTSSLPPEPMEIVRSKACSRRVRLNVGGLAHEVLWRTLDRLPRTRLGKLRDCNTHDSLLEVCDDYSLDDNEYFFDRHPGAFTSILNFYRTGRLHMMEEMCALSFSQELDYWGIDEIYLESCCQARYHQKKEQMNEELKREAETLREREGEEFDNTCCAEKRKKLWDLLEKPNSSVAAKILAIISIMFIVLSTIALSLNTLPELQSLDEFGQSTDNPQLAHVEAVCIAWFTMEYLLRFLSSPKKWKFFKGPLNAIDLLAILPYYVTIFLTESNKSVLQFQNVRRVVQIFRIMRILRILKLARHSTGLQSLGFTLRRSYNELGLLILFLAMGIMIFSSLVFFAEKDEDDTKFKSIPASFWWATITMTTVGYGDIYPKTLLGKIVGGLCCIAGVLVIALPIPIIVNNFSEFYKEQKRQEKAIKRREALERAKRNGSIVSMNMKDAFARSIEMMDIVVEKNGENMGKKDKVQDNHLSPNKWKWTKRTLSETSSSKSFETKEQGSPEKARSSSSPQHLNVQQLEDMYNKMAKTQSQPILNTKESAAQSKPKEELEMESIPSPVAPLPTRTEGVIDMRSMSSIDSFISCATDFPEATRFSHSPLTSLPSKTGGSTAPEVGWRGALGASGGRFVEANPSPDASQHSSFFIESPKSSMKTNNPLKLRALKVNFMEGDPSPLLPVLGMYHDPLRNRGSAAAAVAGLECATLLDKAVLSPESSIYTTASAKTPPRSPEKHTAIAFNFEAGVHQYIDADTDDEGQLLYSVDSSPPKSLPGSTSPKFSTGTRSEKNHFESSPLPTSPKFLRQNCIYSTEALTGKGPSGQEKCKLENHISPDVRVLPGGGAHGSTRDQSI
T1 sequence 2: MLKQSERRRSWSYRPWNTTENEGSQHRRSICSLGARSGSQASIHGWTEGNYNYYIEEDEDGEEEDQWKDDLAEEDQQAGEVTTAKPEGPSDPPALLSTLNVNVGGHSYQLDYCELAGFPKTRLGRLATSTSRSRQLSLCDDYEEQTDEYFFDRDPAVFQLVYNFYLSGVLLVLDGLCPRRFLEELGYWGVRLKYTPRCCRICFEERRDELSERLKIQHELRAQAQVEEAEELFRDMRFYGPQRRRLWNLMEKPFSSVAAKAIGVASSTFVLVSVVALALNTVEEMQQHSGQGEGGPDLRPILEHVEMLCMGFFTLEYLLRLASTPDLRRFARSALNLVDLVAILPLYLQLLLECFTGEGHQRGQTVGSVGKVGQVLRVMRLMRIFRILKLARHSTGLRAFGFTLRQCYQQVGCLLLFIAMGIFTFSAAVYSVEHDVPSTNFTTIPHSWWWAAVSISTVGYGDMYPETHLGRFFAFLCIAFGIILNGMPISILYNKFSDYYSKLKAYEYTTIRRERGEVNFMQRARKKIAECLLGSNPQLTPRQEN
The description is as above.

In test [3] the target is T2, Kv2.1, heterologously expressed on Hek293 cells (human) (UniProt Q14721).
T2 sequence: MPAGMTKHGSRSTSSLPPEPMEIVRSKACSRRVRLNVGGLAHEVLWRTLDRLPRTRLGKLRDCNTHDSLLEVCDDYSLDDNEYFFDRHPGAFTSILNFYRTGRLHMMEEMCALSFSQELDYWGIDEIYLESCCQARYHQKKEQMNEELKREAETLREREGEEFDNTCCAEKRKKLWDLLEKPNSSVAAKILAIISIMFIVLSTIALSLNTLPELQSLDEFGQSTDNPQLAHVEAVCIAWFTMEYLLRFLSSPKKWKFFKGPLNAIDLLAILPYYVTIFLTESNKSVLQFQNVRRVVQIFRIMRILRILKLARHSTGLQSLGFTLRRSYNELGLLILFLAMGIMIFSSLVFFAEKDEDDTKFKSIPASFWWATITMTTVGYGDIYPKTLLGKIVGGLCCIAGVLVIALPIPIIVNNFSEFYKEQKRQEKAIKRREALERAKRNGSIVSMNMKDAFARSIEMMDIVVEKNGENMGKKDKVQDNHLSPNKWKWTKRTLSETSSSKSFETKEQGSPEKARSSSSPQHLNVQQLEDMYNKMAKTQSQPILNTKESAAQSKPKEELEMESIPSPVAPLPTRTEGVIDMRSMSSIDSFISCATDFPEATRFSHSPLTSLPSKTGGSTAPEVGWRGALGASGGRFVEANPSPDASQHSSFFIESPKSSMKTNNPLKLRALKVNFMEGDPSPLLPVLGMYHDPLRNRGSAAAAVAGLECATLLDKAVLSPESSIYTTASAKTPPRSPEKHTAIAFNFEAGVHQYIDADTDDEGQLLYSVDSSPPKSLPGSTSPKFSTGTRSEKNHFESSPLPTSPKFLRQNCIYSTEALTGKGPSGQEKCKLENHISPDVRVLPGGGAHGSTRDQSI
The test is described as above.

The target of test [4] is T3, Kv channel subunit Kv8.2 (murine) (mouse (endogenous in murine retina)) (UniProt Q8CFS6).
T3 sequence: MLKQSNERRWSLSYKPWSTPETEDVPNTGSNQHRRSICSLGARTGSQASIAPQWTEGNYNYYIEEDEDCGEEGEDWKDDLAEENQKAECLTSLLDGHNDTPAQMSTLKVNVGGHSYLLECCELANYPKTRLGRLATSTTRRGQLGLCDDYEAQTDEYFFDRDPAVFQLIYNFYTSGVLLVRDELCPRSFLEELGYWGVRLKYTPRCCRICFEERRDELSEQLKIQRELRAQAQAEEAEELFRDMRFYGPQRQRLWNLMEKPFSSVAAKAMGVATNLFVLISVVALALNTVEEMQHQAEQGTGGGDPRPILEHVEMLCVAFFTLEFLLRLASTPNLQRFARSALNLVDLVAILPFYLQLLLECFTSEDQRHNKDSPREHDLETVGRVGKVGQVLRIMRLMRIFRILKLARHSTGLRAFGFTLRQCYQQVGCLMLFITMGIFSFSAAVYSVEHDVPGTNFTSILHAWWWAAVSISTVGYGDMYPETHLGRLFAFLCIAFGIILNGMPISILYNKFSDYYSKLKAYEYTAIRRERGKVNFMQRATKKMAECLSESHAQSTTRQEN
Nature of the test: co-IP; murine retinal lysate (wildtype, P18) in 10 mM CHAPS in TBS; antibodies against Atp1a3, Kv2.1, Kv8.2 or Atp1a1 on Protein A Sepharose beads, overnight at 4 °C, five washes; anti-6*His-tag antibody as control; western blot.

Test [5] deals with Atp1a3 subunit of the retinal Na/K-ATPase (murine) (mouse (endogenous in murine retina)) (UniProt Q6PIC6). The description is as above.

These are yes or no findings as the source states them, for the method shown. For part of these data: In cells and extracts the contact can be indirect. Some results given as binding are weak or reduced against the parent protein; the word gives no strength. For part of these data: Sequences can lack the tags named with a protein.

B1: recombinant retinoschisin (human) (protein, UniProt O15537 24-224)
chain: STEDEGEDPWYQKACKCDCQGGPNALWSAGATSLDCIPECPYHKPLGFESGEVTPDQITCSNPEQYVGWYSSWTANKARLNSQGFGCAWLSKFQDSSQWLQIDLKEIKVISGILTQGRCDIDEWMTKYSVQYRTDERLNWIYYKDQTGNNRVFYGNSDRTSTVQNLLRPPIISRFIRLIPLGWHVRIAIRMELLECVSKCA
With B1, the binding entry in test [1] is recorded as “binds”; in test [2] it was “no binding”; in test [3], “no binding”.

B2: Atp1b2 subunit of the retinal Na/K-ATPase (murine) (protein, UniProt P14231 1-290)
chain: MVIQKEKKSCGQVVEEWKEFVWNPRTHQFMGRTGTSWAFILLFYLVFYGFLTAMFSLTMWVMLQTVSDHTPKYQDRLATPGLMIRPKTENLDVIVNISDTESWGQHVQKLNKFLEPYNDSIQAQKNDVCRPGRYYEQPDNGVLNYPKRACQFNRTQLGDCSGIGDPTHYGYSTGQPCVFIKMNRVINFYAGANQSMNVTCVGKRDEDAENLGHFVMFPANGSIDLMYFPYYGKKFHVNYTQPLVAVKFLNVTPNVEVNVECRINAANIATDDERDKFAGRVAFKLRINKT
For B2, the binding entry in test [4] and in test [5] was “binds” in each case.

B3: Kv channel subunit Kv8.2 (murine) (protein, UniProt Q8CFS6 1-562)
chain: MLKQSNERRWSLSYKPWSTPETEDVPNTGSNQHRRSICSLGARTGSQASIAPQWTEGNYNYYIEEDEDCGEEGEDWKDDLAEENQKAECLTSLLDGHNDTPAQMSTLKVNVGGHSYLLECCELANYPKTRLGRLATSTTRRGQLGLCDDYEAQTDEYFFDRDPAVFQLIYNFYTSGVLLVRDELCPRSFLEELGYWGVRLKYTPRCCRICFEERRDELSEQLKIQRELRAQAQAEEAEELFRDMRFYGPQRQRLWNLMEKPFSSVAAKAMGVATNLFVLISVVALALNTVEEMQHQAEQGTGGGDPRPILEHVEMLCVAFFTLEFLLRLASTPNLQRFARSALNLVDLVAILPFYLQLLLECFTSEDQRHNKDSPREHDLETVGRVGKVGQVLRIMRLMRIFRILKLARHSTGLRAFGFTLRQCYQQVGCLMLFITMGIFSFSAAVYSVEHDVPGTNFTSILHAWWWAAVSISTVGYGDMYPETHLGRLFAFLCIAFGIILNGMPISILYNKFSDYYSKLKAYEYTAIRRERGKVNFMQRATKKMAECLSESHAQSTTRQEN
For the molecule B3, the binding result in test [5] is “binds”.
